According to the supplement of paper PMC4604168 (melanoma cell lines):
Some of the results follow. Most values come without repeats; read them as rough.

System: IST-MEL1
Experiment: cell count relative to DMSO control; melanoma cells; higher = more viable cells
Details: library dose: low library concentration; 72 h
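Note: cell number obtained by counting DAPI-stained nuclei in high-throughput microscope images with image analysis software, screen run in 1,536-well plates.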

Row | SMILES | cell count
1 | COc1cc(Nc2ncc(F)c(Nc3ccc4c(n3)NC(=O)C(C)(C)O4)n2)cc(OC)c1OC [Tamatinib] + COC(=O)c1sccc1S(=O)(=O)Nc1ccc(Nc2ccccc2)cc1OC [GSK0660] (first compound 0.4 µM, partner dose 1 µM) | 95.9%
2 | O=C(O)c1ccc(-c2c[nH]c3ncc(-c4ccccc4)cc23)cc1C1CCCC1 + O=C(O)C(=O)Nc1sc2c(c1C(=O)O)CCNC2 [TCS401] (first compound 0.16 µM, partner dose 1.66667 µM) | 102%
3 | C[C@@H]1CCN(C(=O)CC#N)C[C@@H]1N(C)c1ncnc2[nH]ccc12 + N#Cc1c(O)c2c(-c3ccc(-c4ccccc4O)cc3)csc2[nH]c1=O [A769662] (first compound 1 µM, partner dose 2 µM) | 97.6%
4 | C[C@@H]1CCN(C(=O)CC#N)C[C@@H]1N(C)c1ncnc2[nH]ccc12 + CC(C)CCN1c2nc(Nc3cc(F)c(O)c(F)c3)ncc2N(C)C(=O)C1C [BID1870] (first compound 1 µM, partner dose 0.2 µM) | 98.1%
5 | C[C@@H]1CCN(C(=O)CC#N)C[C@@H]1N(C)c1ncnc2[nH]ccc12 + O=c1cc(-c2cccc3c2Sc2ccccc2S3)oc(N2CCOCC2)c1 [KU55933] (first compound 1 µM, partner dose 1 µM) | 104%
6 | O=C(O)c1ccc(-c2c[nH]c3ncc(-c4ccccc4)cc23)cc1C1CCCC1 + O=C1NC(=O)/C(=C/c2ccc(-c3ccc(F)cc3O)o2)S1 [AS252424] (first compound 0.16 µM, partner dose 1 µM) | 104%
7 | O=C(O)c1ccc(-c2c[nH]c3ncc(-c4ccccc4)cc23)cc1C1CCCC1 + CCN(CC)CCCCNc1ncc2cc(-c3cc(OC)cc(OC)c3)c(NC(=O)NC(C)(C)C)nc2n1 [PD173074] (first compound 0.16 µM, partner dose 0.1 µM) | 90.3%
8 | O=c1[nH]nc(Sc2ncc([N+](=O)[O-])s2)n1-c1ccc2c(c1)OCCO2 + CN1CCN(c2ccc3nc(-c4c(N)c5c(F)cccc5[nH]c4=O)[nH]c3c2)CC1 [Dovitinib] (first compound 0.2 µM, partner dose 0.1 µM) | 97.2%
9 | COc1cc(Nc2ncc(F)c(Nc3ccc4c(n3)NC(=O)C(C)(C)O4)n2)cc(OC)c1OC [Tamatinib] + COc1ccc(-c2ccc3c(N4CCOCC4)nc(N4C[C@@H](C)O[C@@H](C)C4)nc3n2)cc1CO [KU0063794] (first compound 0.4 µM, partner dose 0.02 µM) | 92.2%
10 | O=c1[nH]nc(Sc2ncc([N+](=O)[O-])s2)n1-c1ccc2c(c1)OCCO2 + CCCS(=O)(=O)Nc1ccc(F)c(C(=O)c2c[nH]c3ncc(Cl)cc23)c1F [PLX4720] (first compound 0.2 µM, partner dose 0.08 µM) | 98.3%
11 | O=c1[nH]nc(Sc2ncc([N+](=O)[O-])s2)n1-c1ccc2c(c1)OCCO2 + COc1ccc(Cl)c(Nc2nc3ccccc3nc2NS(=O)(=O)c2cccc(NC(=O)C(C)(C)N)c2)c1 [XL147] (first compound 0.2 µM, partner dose 0.8 µM) | 93.2%
12 | C[C@@H]1CCN(C(=O)CC#N)C[C@@H]1N(C)c1ncnc2[nH]ccc12 + COc1ccc2c(c1)CCC1C2CCC2(C)C(NCCCCCCN3C(=O)C=CC3=O)CCC12 [U73122] (first compound 1 µM, partner dose 0.4 µM) | 96.8%
13 | CC1(C)NC(=O)N(c2ccc([N+](=O)[O-])c(C(F)(F)F)c2)C1=O [nilutamide] + c1cc(-c2cnn3cc(-c4ccc(OCCN5CCCCC5)cc4)cnc23)ccn1 [Dorsomorphin] (first compound 1 µM, partner dose 0.4 µM) | 93.9%
14 | O=c1[nH]nc(Sc2ncc([N+](=O)[O-])s2)n1-c1ccc2c(c1)OCCO2 + C=CCNC1=C2C[C@@H](C)C[C@H](OC)[C@H](O)[C@@H](C)/C=C(\C)[C@H](OC(N)=O)[C@@H](OC)/C=C\C=C(/C)C(=O)NC(=CC1=O)C2=O [Tanespimycin] (first compound 0.2 µM, partner dose 0.002 µM) | 101%
15 | O=C(Nc1cccc(Cl)c1)Nc1ncc(CCNc2ncnc3ccsc23)s1 + COc1cc(N2CCC(N3CCN(C)CC3)CC2)ccc1Nc1ncc(Cl)c(Nc2ccccc2S(=O)(=O)C(C)C)n1 [NVP-TAE684] (first compound 0.0008 µM, partner dose 0.08 µM) | 91%
